From a compilation of properties of binary mixtures (doi:10.1007/s10953-016-0490-x)
Some of these densities may be calculated back from excess volumes.

Assay: xn = mol fraction of the nth substance listed
Conditions: 100 kPa

## CCOC(C)=O + CCCC[n+]1ccn(C)c1.O=S(=O)([O-])C(F)(F)F
303.15 K, x2 = 0
  mass density: 888.4 kg/m3
308.15 K, x2 = 0
  mass density: 882.2 kg/m3
313.15 K, x2 = 0
  mass density: 876 kg/m3
318.15 K, x2 = 0
  mass density: 869.7 kg/m3
323.15 K, x2 = 0
  mass density: 863.4 kg/m3

## CCCC[n+]1ccn(C)c1.O=S(=O)([O-])C(F)(F)F + CCOC(C)=O
298.15 K, x1 = 0.0991
  mass density: 981.2 kg/m3
298.15 K, x1 = 0.1916
  mass density: 1046.3 kg/m3
298.15 K, x1 = 0.3056
  mass density: 1110 kg/m3
298.15 K, x1 = 0.3978
  mass density: 1151.4 kg/m3
298.15 K, x1 = 0.5067
  mass density: 1188.8 kg/m3
298.15 K, x1 = 0.7138
  mass density: 1244.8 kg/m3
298.15 K, x1 = 0.7987
  mass density: 1262.9 kg/m3
298.15 K, x1 = 1
  mass density: 1297.5 kg/m3
303.15 K, x1 = 0.0991
  mass density: 975.6 kg/m3
303.15 K, x1 = 0.1916
  mass density: 1041.4 kg/m3
303.15 K, x1 = 0.3056
  mass density: 1105.2 kg/m3
303.15 K, x1 = 0.5067
  mass density: 1184.6 kg/m3
303.15 K, x1 = 0.6095
  mass density: 1214.6 kg/m3
303.15 K, x1 = 0.7138
  mass density: 1240.6 kg/m3
303.15 K, x1 = 0.7987
  mass density: 1258.7 kg/m3
303.15 K, x1 = 0.8932
  mass density: 1276 kg/m3
308.15 K, x1 = 0.0991
  mass density: 970 kg/m3
308.15 K, x1 = 0.1916
  mass density: 1036.4 kg/m3
308.15 K, x1 = 0.3056
  mass density: 1100.4 kg/m3
308.15 K, x1 = 0.3978
  mass density: 1142.1 kg/m3
308.15 K, x1 = 0.5067
  mass density: 1180 kg/m3
308.15 K, x1 = 0.6095
  mass density: 1210.2 kg/m3
308.15 K, x1 = 0.7138
  mass density: 1236.2 kg/m3
308.15 K, x1 = 0.7987
  mass density: 1254.5 kg/m3
308.15 K, x1 = 0.8932
  mass density: 1271.9 kg/m3
308.15 K, x1 = 1
  mass density: 1289.5 kg/m3
313.15 K, x1 = 0.1916
  mass density: 1031.5 kg/m3
313.15 K, x1 = 0.3056
  mass density: 1095.6 kg/m3
313.15 K, x1 = 0.3978
  mass density: 1137.4 kg/m3
313.15 K, x1 = 0.5067
  mass density: 1175.5 kg/m3
313.15 K, x1 = 0.6095
  mass density: 1205.7 kg/m3
313.15 K, x1 = 0.7138
  mass density: 1232.1 kg/m3
313.15 K, x1 = 0.7987
  mass density: 1250.2 kg/m3
313.15 K, x1 = 0.8932
  mass density: 1267.7 kg/m3
318.15 K, x1 = 0.0991
  mass density: 958.5 kg/m3
318.15 K, x1 = 0.3056
  mass density: 1090.7 kg/m3
318.15 K, x1 = 0.3978
  mass density: 1132.7 kg/m3
318.15 K, x1 = 0.5067
  mass density: 1170.9 kg/m3
318.15 K, x1 = 0.6095
  mass density: 1201.2 kg/m3
318.15 K, x1 = 0.7138
  mass density: 1227.9 kg/m3
318.15 K, x1 = 0.7987
  mass density: 1246 kg/m3
318.15 K, x1 = 0.8932
  mass density: 1263.5 kg/m3
323.15 K, x1 = 0.0991
  mass density: 952.7 kg/m3
323.15 K, x1 = 0.1916
  mass density: 1021.3 kg/m3
323.15 K, x1 = 0.3056
  mass density: 1085.9 kg/m3
323.15 K, x1 = 0.3978
  mass density: 1128.1 kg/m3
323.15 K, x1 = 0.5067
  mass density: 1166.4 kg/m3
323.15 K, x1 = 0.6095
  mass density: 1196.7 kg/m3
323.15 K, x1 = 0.7138
  mass density: 1223.8 kg/m3
323.15 K, x1 = 1
  mass density: 1277.5 kg/m3
